# Data taken from paper PMC4336329 (PLoS ONE, 2015).
# Among all 310,000 compounds or so, about 2,200 (0.71%) showed an effect of 50% or more. Effects have a minus sign here. The list shows a part of the results.
# Target: human ether-à-go-go-related gene (hERG) potassium channel (human, UniProt Q12809)
# Assay: primary screen, population patch clamp on CHO cells stably expressing hERG
# Sequence of human ether-à-go-go-related gene (hERG) potassium channel (Q12809 whole entry, looked up): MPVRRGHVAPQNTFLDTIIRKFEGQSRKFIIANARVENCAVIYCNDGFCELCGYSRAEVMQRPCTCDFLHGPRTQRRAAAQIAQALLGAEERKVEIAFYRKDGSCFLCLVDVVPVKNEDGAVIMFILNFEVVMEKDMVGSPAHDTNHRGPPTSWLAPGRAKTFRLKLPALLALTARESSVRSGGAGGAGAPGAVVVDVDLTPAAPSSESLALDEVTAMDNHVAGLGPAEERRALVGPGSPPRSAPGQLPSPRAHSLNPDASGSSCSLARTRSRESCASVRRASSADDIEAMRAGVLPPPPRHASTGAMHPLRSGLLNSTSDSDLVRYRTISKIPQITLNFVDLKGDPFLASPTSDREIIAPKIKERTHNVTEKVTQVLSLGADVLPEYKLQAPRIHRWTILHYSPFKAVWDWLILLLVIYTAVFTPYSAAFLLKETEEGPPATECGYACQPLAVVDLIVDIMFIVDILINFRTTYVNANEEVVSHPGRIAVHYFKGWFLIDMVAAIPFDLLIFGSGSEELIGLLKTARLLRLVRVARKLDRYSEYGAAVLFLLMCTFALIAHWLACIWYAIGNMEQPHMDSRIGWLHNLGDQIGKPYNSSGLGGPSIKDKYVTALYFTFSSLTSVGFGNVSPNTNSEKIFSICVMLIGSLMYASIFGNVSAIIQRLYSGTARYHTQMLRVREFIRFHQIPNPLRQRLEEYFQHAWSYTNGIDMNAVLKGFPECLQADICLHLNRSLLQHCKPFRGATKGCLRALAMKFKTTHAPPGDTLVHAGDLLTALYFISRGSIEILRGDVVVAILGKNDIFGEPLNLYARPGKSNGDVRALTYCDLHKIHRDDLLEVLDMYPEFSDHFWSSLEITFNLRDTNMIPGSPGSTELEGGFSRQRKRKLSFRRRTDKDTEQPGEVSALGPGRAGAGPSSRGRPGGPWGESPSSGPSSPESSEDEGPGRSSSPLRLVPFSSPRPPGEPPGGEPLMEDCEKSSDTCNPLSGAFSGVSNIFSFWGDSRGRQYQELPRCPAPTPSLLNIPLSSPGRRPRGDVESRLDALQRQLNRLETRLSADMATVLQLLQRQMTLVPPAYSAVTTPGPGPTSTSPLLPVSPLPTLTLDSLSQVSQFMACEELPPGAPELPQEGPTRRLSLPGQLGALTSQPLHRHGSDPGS
row,SMILES,"hERG current change (%, negative = inhibition) at 1uM [%]"
1,COc1ccc(N2CCN(C(=O)c3ccc(S(=O)(=O)NCc4ccco4)cc3)CC2)cc1,-19
2,Nc1c(Cl)cc(-c2csc(N3CCCC3c3nc4cc(Cl)c(Cl)cc4n3CCOCCO)n2)cc1Cl (stereo not drawn),8.36
3,O=C(NCc1ccccc1)NC(=O)c1ccncc1,7.72
4,COc1ccccc1CSc1nc2ccccc2[nH]1,1.15
5,COC(=O)C(C)Sc1nc2c(cnn2-c2ccc(F)cc2)c(=O)[nH]1 (stereo not drawn),8.58
6,Nc1nc(C2CCOCC2)cs1,10.5
7,CC(=O)Nc1ccc(S(=O)(=O)N(Cc2ccco2)Cc2cc3ccccc3[nH]c2=O)cc1,13.2
8,Cc1nc2ccc(NC(=O)N3CCCCC3)cc2s1,-3.66
9,O=C(COC(=O)c1cc(Br)ccc1O)NCC1CCCO1 (stereo not drawn),1.61
10,COc1ccc(CCC(=O)NC(C)C2CCCO2)cc1 (stereo not drawn),16.6
11,Cc1cc(C)cc(NC(=O)CCn2c(=O)c3cccn3c3ccccc32)c1,4.83
12,CC(NC(=O)c1ccco1)C(c1cccs1)N1CCOCC1 (stereo not drawn),11.1
13,Cc1cc(C)n(C2CCCCC2OC(=O)c2ccccc2)n1 (stereo not drawn),14
14,Cc1nn(CC(=O)NCCN2CCCCC2C)c(=O)c2cc(-c3ccccc3)nn12 (stereo not drawn),-10.2
15,N#C/C(=C(/O)COC(=O)c1ccccc1O)c1nc2ccccc2s1,14.2
16,Cc1c(N=Cc2ccc(O)c(Br)c2)cccc1[N+](=O)[O-],9.75
17,Cc1cc(C(F)F)n2nc(C(=O)Nc3sc4c(c3C(N)=O)CCC4)nc2n1,-1.34
18,CC(NC(=O)CSc1nc2ccc(N)cc2s1)c1ccccc1 (stereo not drawn),17.5
19,Cc1nc2ccccc2n1CCN1CCOCC1.Cl,15.6
20,CCOc1ccc(N=Nc2ccc(O)c3ncccc23)cc1,13.6
21,O=C(COCc1cc(-c2ccc3c(c2)OCO3)on1)N1CCN(c2ccc(F)cc2)CC1,5.28
22,O=C1OCC/C1=C\c1ccccc1,9.22
23,O=C(Nc1ccccc1Cl)ON=C1c2ccccc2-c2ccccc21,7.36

row,SMILES,"hERG current change (%, negative = inhibition) at 1uM [%]"
1,Cc1c(NC(=O)C(C)n2cc([N+](=O)[O-])cn2)c(=O)n(-c2ccccc2)n1C (stereo not drawn),9.47
2,COc1ccc(C(=O)Nc2ccc(S(=O)(=O)N3CCOCC3)cc2)cc1,10.1
3,O=C(c1[nH]ncc1[N+](=O)[O-])N1CCOCC1,-0.96
4,Cc1cccc(OCC(=O)Nc2ccc3c(c2)nc2n3CCOC2)c1,-16
5,O=C(Cn1c(=O)oc2ccccc21)NCc1ccco1,14.5
6,CC(/C=C1\SC(=S)N(NS(=O)(=O)c2ccc(C)cc2)C1=O)=C\c1ccccc1,9.06
7,COc1ccc(N(CC(O)Cn2cnc3ccccc32)S(=O)(=O)c2ccc(C)cc2)cc1 (stereo not drawn),3.3
8,Cc1cc(C)cc(NC(=O)[C@H](NC(=O)[C@@H]2Cc3ccccc3CN2)c2ccccc2)c1,13.2
9,Cc1cc(SC(C)C(=O)Nc2c(C)n(C)n(-c3ccccc3)c2=O)nc2ccccc12 (stereo not drawn),1.58
10,COC(=O)/C=c1\sc2n(c1=O)C(C)=CC(C)(C)N=2,10.8
11,CC(=O)c1cccc(NC(=O)c2onc(C)c2Cl)c1,11.9
12,N#Cc1cc(-c2ccccc2)nc(NN)n1,7.92
13,CCc1ccc(NC(=S)Nc2ccc3[nH]c(=O)[nH]c3c2)cc1,13.1
14,CC(=O)Nc1ccc(Br)cc1C(=O)C(=O)O,6.06
15,Cc1[nH]c(=S)[nH]c(=O)c1CCC1OCCO1,6.66
16,CCOc1ccc(C(=O)Nc2ccc(NC(=O)c3ccco3)c(Cl)c2)cc1Br,13.2
17,CN(CC(=O)Nc1cccc(F)c1)C(=O)/C=C/c1cn(Cc2ccccc2)nc1-c1cccnc1,4.79
18,CCOC(=O)C1=C(COC(=O)c2ccc(OC(C)C)cc2)NC(=O)NC1C (stereo not drawn),17.4
19,O=C(Cn1cnc2c(cnn2-c2ccc(F)cc2)c1=O)N1CCN(c2ccccc2F)CC1,-12.4
20,S=c1[nH]nc(/C=C/c2ccccc2)o1,17.2
21,Cc1ccc(C(=O)Nc2nnc(C3CCCCC3)s2)o1,12.8
22,CC(=O)Nc1ccc(NC(=O)C2CC(=O)Nc3nc4ccccc4n32)cc1 (stereo not drawn),15.6
23,Cc1nn(Cc2ccccc2)c(C)c1NC(=O)CSc1nnc(-c2cc(Cl)ccc2O)n1C,9.67

row,SMILES,"hERG current change (%, negative = inhibition) at 1uM [%]"
1,COc1ccc(Cl)cc1NS(=O)(=O)c1cccc(C(=O)N2CC(C)OC(C)C2)c1 (stereo not drawn),4.46
2,Cc1cc(OCC(=O)Nc2ccc(CN3CCOCC3)cc2)c2c(C)c(C)c(=O)oc2c1,17.7
3,Cc1cc(C)cc(NC(=O)C(=O)NCCc2c[nH]c3ccccc23)c1,12.2
4,C=CCn1c(COc2ccc(Cl)cc2)nnc1SCC(=O)N/N=C/c1ccccc1,3.45
5,COc1cccc(NC(=O)CN(C)C(=O)CCCc2nc3ccccc3s2)c1,4.25
6,Cc1ccc(NC(=O)c2cc(-c3ccccc3)nn2-c2ccccc2)cc1,13.7
7,CC(C)(C)c1nc2ccccc2c(=O)n1N1C(=O)c2ccccc2C1=O,11.7
8,Cc1cc2ccccc2n1CCNC(=O)c1ccc(S(=O)(=O)N2CCCCC2)cc1,14.8
9,CCC[C@@H]1CCCO[C@@](C(=O)NCc2ccccn2)(C(F)(F)F)C1,17.2
10,CCc1nn(CC(=O)N2CCN(CC)CC2)c(=O)c2cc3sccc3n12,9.14
11,COc1ccc(CCNC(=O)Cc2c(Cl)cccc2Cl)cc1,2.42
12,Cc1ccc(SCCC(=O)Nc2cccc(N(C)S(C)(=O)=O)c2)cc1,1.09
13,Cl.Fc1ccccc1C(c1nnnn1C1CCCC1)N1CCN(Cc2ccccc2)CC1 (stereo not drawn),12.9
14,Cl.OC(c1ccccc1)C(CN1CCOCC1)c1ccccc1 (stereo not drawn),4.4
15,COc1cc(C(=O)NCc2ccc(OCCN(C)C)cc2)cc(OC)c1OC.Cl,14.2
16,O=C(NC(=S)Nc1c(Cl)ccc2nsnc12)c1ccccc1F,12.2
17,CCn1ncc(S(=O)(=O)Nc2cccnc2)c1C,5.96
18,COc1ccc(Cl)cc1NC(=O)Cn1nc(-c2ccc(C)cc2)n(C)c1=S,1.97
19,O=C(O)CCS(=O)(=O)Cc1ccccc1F,13.3
20,C[C@H](NC(=O)OC(C)(C)C)c1nnc(SCC(=O)Nc2ccc(Br)cc2)o1,6.61
21,Cc1cc(=O)oc2cc(OCCC[n+]3ccccc3)ccc12.[Br-],8.16
22,CCn1cc(CN2CCCC(CNS(=O)(=O)c3cccc4cccnc34)C2)cn1 (stereo not drawn),14.7
23,COc1ccc(-c2cn[nH]c2-c2ccc(OC)cc2O)cc1,-0.931

row,SMILES,"hERG current change (%, negative = inhibition) at 1uM [%]"
1,O=C(C[n+]1ccccc1)Nc1ccccc1Br.[Cl-],18.1
2,CCCN(CCC)c1nc2ccccc2nc1C(C#N)C(=O)OCCOC (stereo not drawn),5.6
3,Cc1cc(NC(=O)CCc2ccccc2)c([N+](=O)[O-])cc1C,-0.405
4,CN(C(=O)COc1ccc(Cl)cc1Cl)C1(C)CCS(=O)(=O)C1 (stereo not drawn),0.854
5,Cc1cc(/C=C2\C(=N)N3N=C(CC(=O)N4CCOCC4)SC3=NC2=O)c(C)n1-c1ccccc1,7.83
6,COc1ccc(N2CC(C(=O)Nc3ccc([N+](=O)[O-])cc3Br)CC2=O)cc1 (stereo not drawn),-43.6
7,CN(C)C(=S)SCC(=O)NCc1ccc(F)cc1,11.7
8,COc1ccc(C2(c3ccc(OC)cc3)NC(=O)N(CC(=O)NCC(F)(F)F)C2=O)cc1,6.68
9,Cc1cccc(NC(c2ccc(C)s2)c2ccc3ccc(C)nc3c2O)n1 (stereo not drawn),17.5
10,Cc1ccc([N+](=O)[O-])cc1NCC(=O)NN,3.27
11,CCOC(=O)Cc1cc(=O)n2[nH]c(C)c(-c3ccc(Cl)cc3)c2n1,13
12,Nc1nc2c3ccccc3nc(Cc3ccccc3)n2n1,14.2
13,COc1ccc(C(=O)CSc2nc3c(c(=O)n(C)c(=O)n3C)n2C)cc1,7.22
14,COCc1cc(C)nc(OCC(=O)N/N=C/c2ccc(-c3cccc([N+](=O)[O-])c3)o2)c1C#N,4.04
15,CN1CCCC(OC(=O)c2ccccc2Br)C1.Cl (stereo not drawn),14.3
16,C=CCc1ccccc1Oc1cc(F)nc(N)n1,10.4
17,COC(=O)c1cccc(C(=O)N2CCCC(Nc3ccc4c(c3)OCCO4)C2)c1 (stereo not drawn),2.38
18,S=C(Nc1ccc(Cl)cc1Cl)NC1CCCCC1,9.91
19,S=c1nc(-c2ccccc2)n(CCN2CCOCC2)c2c1CCCC2,-4.85
20,C/C(=N\NC(=O)CSc1ncccn1)c1ccc2c(c1)OCCO2,14.9
21,CCC(C)NC(=O)c1cc(Sc2nnc(C)s2)nc2ccccc12 (stereo not drawn),12
